In all, about 39,000 compounds went through this assay and about 220 (0.56%) showed activity. Some of the results follow.
Each compound was assayed on Escherichia coli K-12 BW25113 (assay: relative growth (OD600 normalised to plate interquartile mean) (fraction); higher = less growth inhibition, active = 0.2 or less). Conditions: 50 µM; LB; incubation time: overnight (16-24 h).
In the case of Cc1noc(C)c1NC(=O)Nc1ccc2c(c1)C(=O)N([C@@H](C)CO)C[C@H](C)[C@@H](CN(C)C(=O)Nc1ccc(F)cc1)OCCCC[C@H](C)O2, the relative growth is reported as inactive: 1.01. C[C@@H]1CCCCO[C@H](CN(C)C(=O)c2ccccc2)[C@@H](C)CN([C@H](C)CO)C(=O)c2cc(NC(=O)C3CCCCC3)ccc2O1 was tested, and the relative growth was inactive: 0.997. For c1ccc(-n2nnnc2CN2CCOCC2)cc1, the relative growth was inactive: 1.04. With O=C1CNCCN1C1CCCC1 the relative growth was inactive: 0.973. For C[C@@H]1CN([C@@H](C)CO)C(=O)c2cc(C#CC(C)(C)O)cnc2O[C@@H]1CN(C)C(=O)CN(C)C, the relative growth was inactive: 0.998. In the case of C[Se]CCC(N)C(=O)O (stereo unspecified), the relative growth is reported as inactive: 1.05. For C[C@@H]1CCCCO[C@H](CN(C)Cc2ccc(C(F)(F)F)cc2)[C@H](C)CN([C@H](C)CO)C(=O)c2cc(NC(=O)c3ccccc3)ccc2O1, the relative growth was inactive: 1.04. C[C@@H]1CN([C@@H](C)CO)C(=O)c2cccc(NC(=O)Nc3ccc(C(F)(F)F)cc3)c2O[C@H]1CN(C)C(=O)Nc1ccc2c(c1)OCO2 was tested, and the relative growth was inactive: 0.931. For C[C@H](CO)N1C[C@H](C)[C@@H](CN(C)C(=O)CN(C)C)Oc2cc(C#Cc3cccnc3)ccc2S1(=O)=O, the relative growth was inactive: 1.02. In the case of C[C@H](CO)N1C[C@H](C)[C@@H](CN(C)C(=O)Nc2ccccc2)Oc2c(NS(=O)(=O)c3cn(C)cn3)cccc2C1=O, the relative growth is reported as inactive: 0.949. In the case of CC(CCc1ccc(O)cc1)NCC(O)c1ccc(O)cc1.Cl (stereo unspecified), the relative growth is reported as inactive: 1.07. In the case of Cc1ccc(S(=O)(=O)Nc2ccc3c(c2)CC(=O)N([C@@H](C)CO)C[C@@H](C)[C@H](CN(C)S(=O)(=O)c2ccc(F)cc2)O3)cc1, the relative growth is reported as inactive: 1.02. In the case of Cc1nn2c(N)csc2nc1=O, the relative growth is reported as inactive: 1.02. C[C@H]1CN([C@@H](C)CO)C(=O)Cc2cc(NS(C)(=O)=O)ccc2O[C@H]1CN(C)Cc1ccc2c(c1)OCO2 was tested, and the relative growth was inactive: 0.973. With C[C@@H]1CCCCO[C@H](CN(C)C(=O)Cc2ccccc2)[C@H](C)CN([C@@H](C)CO)C(=O)c2cc(NC(=O)NC3CCCCC3)ccc2O1 the relative growth was inactive: 0.999. For COc1ccccc1S(=O)(=O)N[C@H]1CC[C@H](CCNC(=O)C2CCOCC2)O[C@@H]1CO, the relative growth was inactive: 1. Cc1cccc(NC(=O)Nc2ccc3c(c2)C(=O)N(C)[C@H]2CC[C@@H](CC(=O)NCc4ccccc4Cl)O[C@@H]2CO3)c1 was tested, and the relative growth was inactive: 1.02. In the case of COc1cccc(N2CCN(C3=Nc4c(F)cccc4[C@H](CC(=O)O)N3c3cc(C(F)(F)F)ccc3OC)CC2)c1, the relative growth is reported as inactive: 0.947. In the case of C[C@@H]1CCCCO[C@H](CN(C)C(=O)Nc2cccc3ccccc23)[C@H](C)CN([C@@H](C)CO)C(=O)c2cc(NS(C)(=O)=O)ccc2O1, the relative growth is reported as inactive: 0.984. In the case of C[C@@H]1CN([C@@H](C)CO)C(=O)c2cc(NC(=O)C3CC3)ccc2O[C@H]1CN(C)S(=O)(=O)c1ccccc1, the relative growth is reported as inactive: 1.01. For C[C@H](CO)N1C[C@H](C)[C@H](CN(C)C(=O)Nc2cccc3ccccc23)OCCCC[C@H](C)Oc2ccc(NC(=O)CCC(F)(F)F)cc2C1=O, the relative growth was inactive: 0.975. With C[C@@H]1CN([C@H](C)CO)S(=O)(=O)c2ccc(C#Cc3ccncc3)cc2O[C@H]1CN(C)C(=O)C1CCCCC1 the relative growth was inactive: 1.02. In the case of Cc1noc(C)c1S(=O)(=O)Nc1ccc2c(c1)C(=O)N([C@H](C)CO)C[C@H](C)[C@@H](CN(C)Cc1ccc(Cl)c(Cl)c1)OCCCC[C@@H](C)O2, the relative growth is reported as inactive: 0.974. In the case of C[C@@H]1CN([C@@H](C)CO)C(=O)c2cc(NS(=O)(=O)c3ccc(F)cc3)ccc2O[C@H]1CN(C)Cc1ccc(Oc2ccccc2)cc1, the relative growth is reported as inactive: 0.984. For C[C@H](CO)N1C[C@H](C)[C@@H](CN(C)C(=O)Nc2ccc(C(F)(F)F)cc2)Oc2ccc(NS(=O)(=O)c3ccc(Cl)cc3)cc2CC1=O, the relative growth was inactive: 0.982. COc1ccc(S(=O)(=O)Nc2ccc3c(c2)[C@@H]2C[C@H](CC(=O)NCC4CC4)O[C@@H](CO)[C@@H]2O3)cc1 was tested, and the relative growth was inactive: 0.985. COc1ccc(COC[C@]23NC(=S)N[C@H](c4ccccc4O2)[C@@H]3CO[Si](C)(C)C(C)(C)C)cc1 was tested, and the relative growth was inactive: 0.976. In the case of C[C@H](CO)N1C[C@H](C)[C@H](CN(C)CC2CC2)Oc2ccc(NS(=O)(=O)c3cn(C)cn3)cc2C1=O, the relative growth is reported as inactive: 1.01. In the case of C[C@@H]1CN([C@H](C)CO)S(=O)(=O)c2ccc(C#Cc3ccccc3)cc2O[C@@H]1CN(C)S(C)(=O)=O, the relative growth is reported as inactive: 1.01. For O=C(C[C@@H]1CC[C@@H]2[C@H](COC[C@H](O)CN2S(=O)(=O)c2cccc(F)c2)O1)NCCCN1CCOCC1, the relative growth was inactive: 1.01. In the case of Cc1ccc(S(=O)(=O)N(C)C[C@@H]2OCCCC[C@@H](C)Oc3ccc(NS(=O)(=O)c4ccc(Cl)cc4)cc3C(=O)N([C@H](C)CO)C[C@@H]2C)cc1, the relative growth is reported as inactive: 0.932. In the case of Cc1[nH]c(=O)c(C#N)cc1-c1ccncc1, the relative growth is reported as inactive: 1.09. COC(=O)C[C@H]1CC[C@H]2[C@@H](COC[C@@H](O)CN2S(=O)(=O)c2cn(C)cn2)O1 was tested, and the relative growth was inactive: 1.03. C[C@H](CO)N1C[C@H](C)[C@@H](CN(C)C(=O)Nc2ccccc2)Oc2ccc(NC(=O)Cn3cnnn3)cc2C1=O was tested, and the relative growth was inactive: 0.956. For NCCC(=O)N[C@@H](Cc1cnc[nH]1)C(=O)O.[Zn+3], the relative growth was inactive: 1.01. For Cc1noc(C)c1NC(=O)Nc1ccc2c(c1)C(=O)N([C@H](C)CO)C[C@H](C)[C@H](CN(C)S(=O)(=O)c1ccc(F)cc1)OCCCC[C@@H](C)O2, the relative growth was inactive: 0.969. Cc1cc(C(=O)Nc2cccc3c2O[C@@H](CN(C)S(=O)(=O)c2cccs2)[C@H](C)CN([C@@H](C)CO)C3=O)n(C)n1 was tested, and the relative growth was inactive: 0.994. In the case of CC(C)CC#Cc1ccc2c(c1)O[C@H](CN(C)C(=O)c1cnccn1)[C@@H](C)CN([C@H](C)CO)S2(=O)=O, the relative growth is reported as inactive: 0.96. With C[C@H](CO)N1C[C@H](C)[C@@H](CN(C)C(=O)Cc2ccccn2)Oc2ncc(C#CC3CCCCC3)cc2C1=O the relative growth was inactive: 0.97. Cc1noc(C)c1S(=O)(=O)/N=C/N(C)C was tested, and the relative growth was inactive: 1.03. In the case of COc1ccc(S(=O)(=O)N(C)C[C@@H]2Oc3ccc(NC(=O)NC(C)C)cc3CC(=O)N([C@@H](C)CO)C[C@H]2C)cc1, the relative growth is reported as inactive: 1.03. For Cc1ccc(S(=O)(=O)Nc2ccc3c(c2)CC(=O)N([C@@H](C)CO)C[C@@H](C)[C@@H](CN(C)Cc2ccc(Oc4ccccc4)cc2)O3)cc1, the relative growth was inactive: 1.01. For COc1ccc(C#Cc2cnc3c(c2)C(=O)N([C@H](C)CO)C[C@@H](C)[C@H](CN(C)C(=O)CN(C)C)O3)cc1, the relative growth was inactive: 0.991. Cc1ccnc2c1NC(=O)c1cccnc1N2C1CC1 was tested, and the relative growth was inactive: 1.07. For COCCNC(=O)C[C@@H]1CC[C@@H]2[C@H](COC[C@@H](O)CN2C(=O)Nc2ccc3c(c2)OCO3)O1, the relative growth was inactive: 0.991. With C[C@H](CO)N1C[C@H](C)[C@H](CN(C)S(=O)(=O)c2ccc(F)cc2)OCCCC[C@H](C)Oc2ccc(NC(=O)CCC(F)(F)F)cc2C1=O the relative growth was inactive: 1.04. With O=C(C[C@@H]1CC[C@H]2[C@@H](COC[C@H](O)CN2C(=O)c2cnccn2)O1)NCc1ccc(Oc2ccccc2)cc1 the relative growth was inactive: 0.982. For C[C@H](CO)N1C[C@H](C)[C@@H](CN(C)S(=O)(=O)c2ccc(C(F)(F)F)cc2)OCc2ccccc2-c2ccccc2C1=O, the relative growth was inactive: 1.04. For C[C@@H]1CCCCO[C@@H](CN(C)C(=O)Nc2ccc(C(F)(F)F)cc2)[C@H](C)CN([C@@H](C)CO)C(=O)c2cc(NC(=O)Nc3ccccc3)ccc2O1, the relative growth was inactive: 1.01. C[C@@H]1CCCCO[C@@H](CN(C)C(=O)Cc2ccccc2)[C@H](C)CN([C@H](C)CO)C(=O)c2cc(NS(=O)(=O)c3ccc(Cl)cc3)ccc2O1 was tested, and the relative growth was inactive: 0.973. For O=C(Nc1ccn([C@H]2O[C@H](CO)[C@@H](O)[C@@H]2O)c(=O)n1)c1ccccc1, the relative growth was inactive: 0.945. In the case of C[C@H]1CN([C@@H](C)CO)C(=O)Cc2cc(NC(=O)C3CCCCC3)ccc2O[C@@H]1CN(C)Cc1ccc(Oc2ccccc2)cc1, the relative growth is reported as inactive: 1.03. C[C@@H]1CCCCO[C@@H](CN(C)C(=O)Nc2cccc3ccccc23)[C@H](C)CN([C@@H](C)CO)C(=O)c2cc(NS(=O)(=O)c3ccc(Cl)cc3)ccc2O1 was tested, and the relative growth was inactive: 1.01. In the case of COc1ccc(S(=O)(=O)Nc2ccc3c(c2)C(=O)N([C@@H](C)CO)C[C@H](C)[C@@H](CN(C)C(=O)NC2CCCCC2)OCCCC[C@H](C)O3)cc1, the relative growth is reported as inactive: 1.01. COC1C=COC2(C)Oc3c(C)c(O)c4c(O)c(c5c(nc6cc(C)ccn65)c4c3C2=O)NC(=O)C(C)=CC=CC(C)C(O)C(C)C(O)C(C)C(OC(C)=O)C1C (stereo unspecified) was tested, and the relative growth was active: 0.0499. For CC(C)NC(=O)N(C)C[C@@H]1Oc2c(NS(=O)(=O)c3ccc(Cl)cc3)cccc2C(=O)N([C@@H](C)CO)C[C@H]1C, the relative growth was inactive: 0.99. With CCS(=O)(=O)Nc1ccc2c(c1)C(=O)N(C)[C@@H]1CC[C@H](CC(=O)N3CCN(C)CC3)O[C@@H]1CO2 the relative growth was inactive: 1. In the case of Cc1noc(C)c1NC(=O)Nc1ccc2c(c1)C(=O)N([C@H](C)CO)C[C@@H](C)[C@@H](CN(C)C(=O)C1CCCCC1)OCCCC[C@@H](C)O2, the relative growth is reported as inactive: 1.01. In the case of COc1ccc(NC(=O)Nc2cccc3c2O[C@H](CN(C)S(=O)(=O)c2c(C)noc2C)[C@@H](C)CN([C@H](C)CO)C3=O)cc1, the relative growth is reported as inactive: 0.994. In the case of C#CCN(C)Cc1ccccc1.Cl, the relative growth is reported as inactive: 1.12. In the case of CCCCCCCCCCCCCCCCCC(=O)NCCCCOn1c(CCCC)nc2c(N)nc3ccccc3c21, the relative growth is reported as inactive: 1.
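Note: static incubation at 37 °C against the wild-type strain, values averaged over two biological replicates.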
